Hit rate of the full screen: of about 45,000 compounds, about 65 (0.1%) were called active. The call rests on the fitted dose curve; in most records, active means well fitted activation curve with a large enough effect; inconclusive means small, poorly fitted or top-dose-only effect; inactive means no such curve, though single readings can be large or run the other way. The list shows a part of the results.
target: Galactocerebrosidase (Homo sapiens) (UniProt P54803); assay: A Novel Cell-Based Assay to Identify Small Molecules for B -Galactocerebrosidase; details: 145M-Twi-hGALC-G270D cells, HMU-beta-Gal fluorescence, 48 h; series mostly up to 57.5 µM; activation: at the top concentration; further: 0% is about no effect; nearly all actives have a fitted effect of over 65% in size
Sequence of UniProt P54803 (P54803 whole entry, looked up): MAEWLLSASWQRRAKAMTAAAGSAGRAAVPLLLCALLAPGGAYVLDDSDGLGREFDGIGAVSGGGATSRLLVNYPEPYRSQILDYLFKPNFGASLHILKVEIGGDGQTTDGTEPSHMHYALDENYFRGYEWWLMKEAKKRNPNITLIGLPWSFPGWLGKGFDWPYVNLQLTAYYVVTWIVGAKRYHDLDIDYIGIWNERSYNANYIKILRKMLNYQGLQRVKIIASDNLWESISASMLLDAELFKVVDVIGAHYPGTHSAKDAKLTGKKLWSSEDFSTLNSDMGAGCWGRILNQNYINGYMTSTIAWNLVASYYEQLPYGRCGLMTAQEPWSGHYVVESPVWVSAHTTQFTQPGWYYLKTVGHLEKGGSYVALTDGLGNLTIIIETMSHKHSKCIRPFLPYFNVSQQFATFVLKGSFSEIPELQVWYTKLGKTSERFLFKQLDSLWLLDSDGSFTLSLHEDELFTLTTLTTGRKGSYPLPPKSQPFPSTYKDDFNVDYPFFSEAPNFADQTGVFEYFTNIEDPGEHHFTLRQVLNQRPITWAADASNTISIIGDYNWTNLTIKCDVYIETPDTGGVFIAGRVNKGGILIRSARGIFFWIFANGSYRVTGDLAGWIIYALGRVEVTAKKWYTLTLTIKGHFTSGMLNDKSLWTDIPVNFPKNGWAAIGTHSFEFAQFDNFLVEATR
Procedure, shortened: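 qHTS, 1536-well; 145M-Twi-hGALC-G270D cells (WT line also made) in DMEM/F12 + 10% FBS; compound incubation on live cells; HMU-β-gal 0.1 mM final, pH 5.2, NaTC; carbonate stop; fluorescence increase = enhanced residual activity.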

activation, inactive:
CCc1cnc2c(c1SCC(=O)NCc1ccc(C)cc1)c(=O)n(C)c(=O)n2C -7.16%
Cc1ccc(CNC(=O)C2CCN(S(=O)(=O)c3ccc4nc5c(c(C(=O)O)c4c3)CC(C)CC5)CC2)cc1 (stereo unspecified) -4.53%
Cc1ccccc1OCC(=O)Nc1ccc(-c2nc3cc(Cl)cc(Cl)c3o2)cc1 -9.04%
CCCSc1ncc(Cl)c(C(=O)N(Cc2ccccc2)c2ccc(OC)cc2)n1 -7.05%
COc1cccc(NC(=O)N(CCC(C)C)C2CCN(C(C)C)CC2)c1 -7.31%
Cn1ccc2c(OCC(=O)Nc3ccc(OC(F)(F)F)cc3)cccc2c1=O -26.4%
CC(=O)c1ccc(NS(=O)(=O)c2ccc(Br)s2)cc1 -10.6%
C[C@@H](N)C(=O)O -11.3%
CC(C)(C)C1CCc2c(sc(NC(=O)c3ccco3)c2C(=O)Nc2ccccc2Cl)C1 (stereo unspecified) -39.7%
COc1cc2nc(SCC(=O)Nc3ccccc3C)n3nc(CCn4c(C)nc5ccccc54)nc3c2cc1OC 0.0274%
CCOc1ccc(C(=O)OCc2cc(=O)n3nc(C4CC4)sc3n2)cc1 -5.5%
CCn1cc(C(=O)N2CCN(c3cc(Cl)ccc3C)CC2)c(=O)c2cc(S(=O)(=O)N3CCCC3)ccc21 -11.2%
COc1cc(Cl)c(C)cc1NC(=O)c1cc2c(=O)oc3ccccc3c2s1 -10.9%
Cc1cc(C(=O)N2CCN(c3cccc(Cl)c3)CC2)c2c(C)nn(-c3ccccc3Cl)c2n1 -39.1%
COc1ccc(CNC(=O)C2=CC(c3ccc(OC)c(OC)c3)=NS(=O)(=O)N2C)cc1 -7.7%
CCOCCCNC(=O)c1cn(CC)c2ccc(S(=O)(=O)N3CCOCC3)cc2c1=O -13.6%
Cc1cccc2sc(N(Cc3cccnc3)C(=O)CCOc3ccccc3)nc12 -10.5%
CCOC(=O)CSc1nc2ccc(NC(=O)COc3ccc(F)cc3)cc2s1 -10%
CN(C)c1ccc(C(CNC(=O)c2ccccc2Cl)N2CCCC2)cc1 (stereo unspecified) -3.93%
CCOc1ccc(NC(=O)N(Cc2cn(CC)c3ccccc23)C2CCCCCC2)cc1 -14.9%
COc1ccc(S(=O)(=O)c2c(Nc3ccc(C)cc3C)sc(C(=O)c3ccc(F)cc3)c2N)cc1 -22.9%
Cc1cc(C)c(NC(=O)C2CCN(S(=O)(=O)c3c(C)noc3/C=C/c3ccccc3F)CC2)c(C)c1 -7.83%
O=C(CSc1nc2c([nH]c3ccccc32)c(=O)n1-c1cccc(Cl)c1)c1ccccc1 -26.1%
O=C(NCc1ccccc1)C(=O)NCC(c1cccs1)S(=O)(=O)c1cccs1 (stereo unspecified) -2.85%
Cc1nnsc1C(=O)Oc1ccc(Cl)cc1 -16.2%
CN1C(=O)Cc2cc(S(=O)(=O)NCc3ccc(Cl)cc3)ccc21 -6.05%
Cc1c(C(=O)OCC2CCCCC2)[nH]c2c1C(=O)CC(c1ccccc1Cl)C2 (stereo unspecified) -4.74%
COc1ccc(CCNC(=O)CCc2c(C)nc3c4cccnc4nn3c2C)cc1OC -11.9%
CCCCn1cc(S(=O)(=O)c2ccc(OC)cc2)c(=O)c2cc(F)c(N3CCOCC3)cc21 -14.3%
CCc1ccc(-n2nc(C)c3c(C)cc(=O)n(CC(=O)Nc4cc(C)ccc4C)c32)cc1 1.85%
COc1ccc(NC(=O)c2ncn(-c3ccccc3)n2)cc1Cl -29.3%
COc1cccc(N2CCN(C3=NS(=O)(=O)C(c4ccc(C)cc4)=C3C)CC2)c1 -13.8%
Cc1ccc(Cn2c(=O)n(CCCCC(=O)NCc3ccc4c(c3)OCO4)c(=O)c3ccccc32)cc1 8.15%
Cc1cc(C)cc(C(=O)NCCc2csc(-c3ccc(C(F)(F)F)cc3)n2)c1 -15%
CCc1ccccc1NC(=O)CSc1ncc2c(n1)-c1cc(Cl)ccc1N(Cc1ccccc1)S2(=O)=O 1.13%
CCC(Sc1nnc2c(n1)[nH]c1ccccc12)C(=O)Nc1ccccc1OC (stereo unspecified) -14.2%
CCc1ccccc1S(=O)(=O)Cc1ccc(C(=O)NCCc2ccc(C)cc2)o1 -10.4%
Cc1cc2c(cc1NS(=O)(=O)c1ccc(NC(=O)CC(C)C)cc1)n(C)c(=O)c(=O)n2C -4.32%
Cc1cc(C)c(NC(=O)Cn2c(=O)n(CC3CCCO3)c(=O)c3ccccc32)c(C)c1 (stereo unspecified) -0.321%
Cn1cc(S(=O)(=O)N2CCCC2)cc1C(=O)N1CCN(c2cccc(Cl)c2)CC1 -8.75%
Cc1ccc(N2C(=O)c3n[nH]c(C)c3C2c2ccccc2Cl)cc1 (stereo unspecified) 3.74%
CC(=O)Nc1c(C)nn(-c2ccccc2)c1N1CCC(C(=O)Nc2cc(F)ccc2F)CC1 -5.4%
COc1ccccc1NC(=O)N1CCN(Cc2nc3ccc(C)cc3o2)CC1 -7.76%
O=C(O)CCC(=O)O -18.8%
Cc1c2cnn(CC(=O)NC(C)C)c(=O)c2c(C)n1Cc1cccc(Cl)c1 -16.5%
CC(Oc1ccccc1)C(=O)Nc1cccc(-c2cn3cccnc3n2)c1 (stereo unspecified) -15.4%
CCNC(=O)c1ccc2c(c1)sc1nc(-c3cccc(OC)c3)cn12 9.73%
Cc1ccc(NC(=O)N2CCC3(CC2)Oc2ccccc2C(=O)N3Cc2ccc(F)cc2)cc1 -10.7%
O=C(NCCc1ccccc1)c1ccc2c(c1)N(Cc1ccc(F)cc1Cl)C(=O)CS2 -4.29%
NC1=NCC2c3ccccc3Cc3ccccc3N12 (stereo unspecified) -15%
CCc1ccc(OC(=O)CSc2nnc(-c3ccc(OC)c(OC)c3)o2)cc1 11.2%
COc1ccc(S(=O)(=O)c2c(C(=O)c3ccc(C)c(C)c3)cnc3ccc(C)cc23)cc1 -13.9%
Fc1ccc(-c2cc(-c3nc(-c4ccc(Cl)cc4)no3)[nH]n2)cc1 -13.8%
Cc1c(C(=O)OC2CCC(C)CC2)[nH]c2c1C(=O)CC(c1ccc(N(C)C)cc1)C2 (stereo unspecified) -14.1%
O=C(Cn1cc(SCc2cccc(Cl)c2)c2ccccc21)N1CCCCC1 -11.9%
CCOc1ccc(NC(=O)CC2C(=O)N(c3ccccc3)C(=O)N2CCc2sccc2C)cc1 (stereo unspecified) -14.8%
CCOc1nc(-c2ccccc2)ccc1-c1noc(-c2ccc(C)cc2)n1 -16.3%
Cc1ccccc1CSc1nc2c(sc3ccccc32)c(=O)n1CCCC(=O)NCCCOC(C)C -12.5%
COC(=O)c1cc(NC(=O)CC2C(=O)OCCN2Cc2ccccc2)cc(C(=O)OC)c1 (stereo unspecified) -9.94%
COc1cccc(OCC(=O)NC2CC(=O)N(c3cccc(OC)c3)C2)c1 (stereo unspecified) -14%
CC(C)(C)OC(=O)N1CCC(c2c(C(=O)N3CCN(C(=O)c4ccco4)CC3)cnn2-c2cccc(Cl)c2)CC1 -14.5%
CC(=O)c1ccc(NC(=O)c2nc(-c3ccc(Cl)cc3)n3c2CCCCC3)cc1 -13.7%
COCc1cc(C)nc2c1C(=O)NC(c1ccc(NC(C)=O)cc1)N2Cc1ccccc1 (stereo unspecified) -25.5%
Cc1cccc(OCC(=O)N2CCC(c3nc4ccccc4o3)CC2)c1C -14.6%
Cc1cc(C)c2c(=O)cc(C(=O)Nc3sc4c(c3C(=O)NCc3ccco3)CCCC4)oc2c1 2.64%
CS(=O)(=O)CC[C@@H](C(=O)NCCc1ccccc1)N1Cc2ccccc2C1=O -1.66%
CN(c1nnc(NC(=O)Nc2ccccc2C(F)(F)F)s1)C1CCCCC1 -24.3%
COc1ccc(NC(=O)Cn2c(=O)c3ccccc3n3nncc23)cc1Cl -17.9%
NC(=O)N1c2ccccc2CC(=O)c2ccccc21 -19.5%
O=C(C1COc2ccccc2O1)N(Cc1cccnc1)c1nc2c(F)cccc2s1 (stereo unspecified) 0.764%
CCOC(=O)c1c(NC(=O)c2cc(-c3cccc(Cl)c3)on2)sc(C(C)=O)c1C -10.3%
CC1CCN(S(=O)(=O)c2cc(C(=O)N3CCN(c4cccc(Cl)c4)CC3)n(C)c2)CC1 1.86%
COc1ccc2c(c1)-c1nc(NC(=O)c3cccc(Br)c3)sc1CC2 -2.22%
Cc1ccc(NC(=O)CN2C(=O)c3cccnc3Sc3ccccc32)c(Br)c1 0.208%
Cc1ccc(Nc2c3c(nc4nncn24)CCC3)c(C)c1 -8.73%
Cc1ccc(NC(=O)Cn2nnc(-c3ccccc3)n2)c(C)c1 9.26%
COc1ccccc1C1C(C(=O)N2CCCCC2)=C(C)Nc2nc3ccccc3n21 (stereo unspecified) -8.83%
CCOC(=O)c1nnn(C(CC)C(=O)Nc2ccc(F)cc2)c1C(=O)OCC (stereo unspecified) -21.8%
CCOc1ccc(S(=O)(=O)c2cn(CC)c3ccc(F)cc3c2=O)cc1 -15.2%
COc1ccc(N(CC(=O)N2CCc3ccccc3C2)S(=O)(=O)c2ccccc2)cc1 -18.3%
CCc1cccc(NC(=O)CSc2nnc(-c3cc4occc4n3C)n2-c2ccccc2C)c1 -10.3%
COc1cccc(-n2c(=O)c3sc4ccccc4c3n(Cc3c(F)cccc3Cl)c2=O)c1 -5.86%
Cc1ccc(-n2nc(CO)c(C(=O)NCCC(C)C)n2)cc1C -10.6%
O=c1n(Cc2ccc(F)cc2)c2ccccc2c2nc(-c3ccccc3)nn12 -1.47%
Cc1ccc(CNC(=O)c2ccc(Cn3c(SCc4ccc(F)cc4)nc4cccnc43)cc2)o1 -8.97%
CSc1ccc(CCNC(=O)Cn2c(C)c3cnn(-c4ccccc4)c(=O)c3c2C)cc1 -17.5%
CCCN(C(=O)CCc1nc(-c2ccc(C)cc2)no1)c1ccc(OCC)cc1 0.995%
Cc1ccc(N2C(=O)C(CC(=O)Nc3cccc(F)c3)N(CCc3ccccc3F)C2=O)cc1 (stereo unspecified) -33.8%
CCOC(=O)c1c(C)oc2nc(C)nc(NCC3CCN(Cc4cc(C)ccc4C)CC3)c12 -14.4%
Cc1ccc(Sc2ccc(N3CCCC(C(=O)Nc4ccc(F)cc4)C3)nn2)cc1 (stereo unspecified) 1.99%
O=C(Cn1nc(N2CCN(c3ccccc3)CC2)ccc1=O)NCc1ccccc1F 0.554%
CCN(CC)C(=O)CSc1nc2cc3c(cc2c(=O)n1CCCC(=O)NCc1ccc2c(c1)OCO2)OCO3 1.5%
COc1ccc(-c2cn3c(n2)sc2cc(C(=O)NCCCc4ccccc4)ccc23)cc1 -12.1%
COc1cccc2c1cc1c(=O)n(CC(=O)N3CCN(c4ccc(F)cc4)CC3)nc(C)n12 -4%
CCCS(=O)(=O)c1nc(S(=O)(=O)c2ccc(C)cc2)c(NCCCOC(C)C)s1 3.41%
COc1ccc2nc(SCC(O)c3cccc(Br)c3)[nH]c2c1 (stereo unspecified) -9.66%

Source: PubChem BioAssay AID1159614 (National Center for Advancing Translational Sciences (NCATS), 2016)
